Data reported in PubChem BioAssay (NCATS).
Inconclusive means that the source gave no clear call. Such entries were picked first, then a sample of the others. Potencies of inconclusive entries are doubtful fits and often do not repeat. Activity calls are given as the source filed them. The call rests on the fitted dose curve; in most records, active means well fitted curve in the direction sought with a large enough effect; inconclusive means small, poorly fitted or top-dose-only effect, or another doubt; inactive means no such curve, though single readings can be large; an effect the other way counts as inactive or inconclusive.

Assays:
[1] = biological target: Rap guanine nucleotide exchange factor 3 (Homo sapiens) (UniProt O95398); assay: Confirmatory qHTS for antagonist of cAMP-regulated guanine nucleotide exchange factor 3 (EPAC1) (AID 1645880); conditions: EPAC1 Rap1B-BODIPY-GDP exchange, fluorescence; activity, negative = inhibition: at 115 µM (top of the series); further: nearly all actives have a fitted effect of over 55% in size;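 on activity, negative = inhibition: plate controls were DMSO only for no effect and full effect of the ATA control for full effect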
Chain of UniProt O95398 (O95398 whole entry, looked up): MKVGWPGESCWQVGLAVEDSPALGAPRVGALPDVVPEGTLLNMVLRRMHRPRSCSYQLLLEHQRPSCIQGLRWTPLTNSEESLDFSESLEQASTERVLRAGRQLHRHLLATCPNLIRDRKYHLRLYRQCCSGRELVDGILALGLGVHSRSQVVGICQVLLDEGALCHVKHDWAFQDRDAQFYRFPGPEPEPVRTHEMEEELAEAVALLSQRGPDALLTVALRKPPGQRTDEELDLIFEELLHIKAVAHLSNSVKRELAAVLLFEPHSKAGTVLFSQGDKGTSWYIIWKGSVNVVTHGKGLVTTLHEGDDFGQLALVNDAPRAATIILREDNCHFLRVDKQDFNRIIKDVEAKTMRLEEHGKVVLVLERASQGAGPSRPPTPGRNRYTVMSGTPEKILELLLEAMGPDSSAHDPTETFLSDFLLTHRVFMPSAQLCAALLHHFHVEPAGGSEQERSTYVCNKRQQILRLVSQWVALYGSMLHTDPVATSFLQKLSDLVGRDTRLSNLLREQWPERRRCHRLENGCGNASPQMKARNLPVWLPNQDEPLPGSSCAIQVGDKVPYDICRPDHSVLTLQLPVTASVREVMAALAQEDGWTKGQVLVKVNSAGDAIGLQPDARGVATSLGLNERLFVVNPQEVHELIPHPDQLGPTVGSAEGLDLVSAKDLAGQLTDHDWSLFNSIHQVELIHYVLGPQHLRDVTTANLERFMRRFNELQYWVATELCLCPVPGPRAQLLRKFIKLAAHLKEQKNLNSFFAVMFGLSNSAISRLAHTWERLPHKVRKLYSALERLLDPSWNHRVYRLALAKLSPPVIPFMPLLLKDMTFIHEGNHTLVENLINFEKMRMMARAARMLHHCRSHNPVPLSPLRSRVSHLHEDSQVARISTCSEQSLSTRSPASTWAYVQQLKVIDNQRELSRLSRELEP
Method in brief: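 Released BODIPY-GDP fluoresces less than Rap1-bound BODIPY-GDP; the signal is followed at 480/540 nm at 5-min intervals over 30 min, after 5 min at room temperature. Reactions contain 100 nM EPAC1, 250 nM RAP1B-BODIPY-GDP and 50 uM GDP; results are normalized to ATA and DMSO.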

[2] = biological target: Rap guanine nucleotide exchange factor 3 (Homo sapiens) (UniProt O95398); assay: Counterscreen qHTS for agonist of cAMP-regulated guanine nucleotide exchange factor 3 (EPAC1) (AID 1645889); conditions: EPAC1 Rap1B-BODIPY-GDP exchange, fluorescence; activation: at 154 µM (top of the series) unless noted; further: nearly all actives have a fitted effect of over 40% in size; on activation: % of control where 0% means no effect
Method in brief: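 Rap1B-BODIPY-GDP 250 nM + GDP 50 uM; cpds 7-pt, final 9.74 nM–152 uM (activator mode) or from 7.32 nM upwards (inhibitor mode); RT; FI 480/540 nm at 5 and 30 min, then ± cAMP, reread.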
Potency means the concentration at half of the fitted maximal effect; tags describe the fitted curve by direction and shape.

| Structure (SMILES) | Potency [1] | activation [2] | Potency [2] | activity, negative = inhibition [1] |
| --- | --- | --- | --- | --- |
| CCOC(=O)C1=C(C)OC(N)=C(C#N)C1c1cc2c(cc1Br)OCO2 (configuration not stated) | inconclusive: 11.2 µM [inhibitor, partial curve, poor fit] | inactive: 11% [at 30.8 µM] | – | – |
| Cc1ccc(/C=C(\CCC(=O)O)c2nc3ccccc3s2)cc1[N+](=O)[O-] | inconclusive: 56.2 µM [inhibitor, partial curve, poor fit] | inactive: 0.0676% [at 30.8 µM] | – | – |
| CCOC(=O)c1c(C)oc2nc(C)nc(N(C)Cc3ccccc3)c12 | inconclusive: 84.9 µM [inhibitor, partial curve, poor fit] | – | inconclusive: 100 µM [activator, partial curve, poor fit] | – |
| O=C(N/N=C/c1ccc(Sc2ccccn2)o1)c1cc2ccccc2cc1O | inconclusive: 42.6 µM [inhibitor, partial curve] | – | inconclusive: 1.58 µM [activator, full curve, poor fit] | – |
| O=C1NC(=O)C(c2ccccc2)(c2ccccc2)N1S(=O)(=O)c1ccccc1 | inactive | – | inconclusive: 0.0708 µM [activator, full curve, poor fit] | – |
| NC(=O)COC(=O)/C=C/c1ccc2ccccc2n1 | inactive | – | inconclusive: 0.0089 µM [activator, full curve, poor fit] | – |
| Cn1c(=O)c2c(-c3ccccc3Br)n(CCc3ccccc3)cc2n(C)c1=O | inactive | – | inconclusive: 7.94 µM [activator, full curve] | – |
| Cc1ccc(NC(=O)C2(C)CCN2CCc2ccccc2)cc1 (configuration not stated) | inconclusive: 17.8 µM [inhibitor, partial curve, poor fit] | inactive: 6.12% [at 30.8 µM] | – | – |
| CS(=O)(=O)N1N=C(c2ccco2)CC1c1ccc(Cl)cc1Cl (configuration not stated) | inactive | – | inconclusive: 0.1 µM [activator, full curve, poor fit] | – |
| Cc1ccc(C)c(S(=O)(=O)N2CCN(C(=O)CCNC(=O)c3ccc(Br)cc3)CC2)c1 | inconclusive: 84.9 µM [inhibitor, partial curve, poor fit] | – | inactive | – |
| Cc1ccc(NC(=O)c2sc3nc(-c4ccncc4)ccc3c2N)cc1 | – | inconclusive: 71.9% [activator] | – | inconclusive: -32.2% [inhibitor] |
| CC1Sc2ccc(C#N)cc2N(Cc2cccc(C(F)(F)F)c2)C1=O (configuration not stated) | inconclusive: 3.01 µM [inhibitor, full curve, poor fit] | – | inactive | – |
| CCOC(=O)c1c(C)oc2nc(C)nc(N(CC(C)C)CC(C)C)c12 | inconclusive: 75.7 µM [inhibitor, partial curve] | – | inactive | – |
| CCc1ccc(/C=C2/SC(=S)N(CCCC(=O)Nc3ccccc3C(=O)O)C2=O)cc1 | active: 75.7 µM | – | inconclusive: 0.251 µM [activator, full curve, poor fit] | – |
| O=[N+]([O-])CC(c1ccccc1)c1c[nH]c2ccccc12 (configuration not stated) | inconclusive: 67.5 µM [inhibitor, partial curve] | – | inactive | – |
| CC(C)N(Cc1ccccc1)C(=O)c1nc(-c2ccc(Cl)cc2)n2c1CCCCC2 | inconclusive: 95.3 µM [inhibitor, partial curve, poor fit] | – | inconclusive: 10 µM [activator, full curve, poor fit] | – |
| CCOC(=O)C(C)n1cnc2c(nnn2-c2cccc(Cl)c2)c1=O (configuration not stated) | inactive | inconclusive: 53.8% [activator] [at 30.8 µM] | – | – |
| COc1cc2c(cc1OC)C(c1cccs1)N(C(=O)C(C)C)CC2 (configuration not stated) | inconclusive: 60.1 µM [inhibitor, partial curve, poor fit] | – | inconclusive: 39.8 µM [activator, partial curve, poor fit] | – |
| CC(C)(C)c1ccc(C(=O)N2CCCC(c3nc4c(nnn4Cc4cccc(F)c4)c(=O)[nH]3)C2)cc1 (configuration not stated) | inconclusive: 75.7 µM [inhibitor, partial curve] | – | inactive | – |
| OC(c1ccc(Cl)c(Cl)c1)c1ncc(-c2ccc(Cl)cc2)[nH]1 (configuration not stated) | inactive | – | inconclusive: 22.4 µM [activator, partial curve, poor fit] | – |
| O=C(c1ccc2c(c1)CCCC2)N1CCN(c2nc3ccc(F)cc3s2)CC1 | inconclusive: 95.3 µM [inhibitor, partial curve, poor fit] | – | inactive | – |
